Publication PMC9911399, “Two distinct binding modes provide the RNA-binding protein RbFox with extraordinary sequence specificity”
Where a chain is given by its changes, count along the chain named. Some of the results follow.

T1: RBFOX1 RRM RbFoxmut (Fox-RRM*) (Homo sapiens, UniProt Q9NWB1 109-208, R118D;E147R;N151S;E152T)
T1 sequence: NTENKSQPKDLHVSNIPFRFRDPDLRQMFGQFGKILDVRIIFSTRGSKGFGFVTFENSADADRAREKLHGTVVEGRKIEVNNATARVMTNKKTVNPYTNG

B1: AAGAUAA (DNA:RNA)
RNA: GGGAGACCGGAAUUCAGAUUGUCCAAGAUAAUUAAAUCCCGUCGUAGCCACCA
DNA 1: CAATCTGAATTCCGGTCTCCC
DNA 2: TGGTGGCTACGACGGGATT
B2: GACUUCA (DNA:RNA)
RNA: B1 RNA with A25G, G27C, A28U, A30C
DNA 1: CAATCTGAATTCCGGTCTCCC
DNA 2: TGGTGGCTACGACGGGATT
B3: UUUAAGG (DNA:RNA)
RNA: B1 RNA with A25U, A26U, G27U, U29A, A30G, A31G
DNA 1: CAATCTGAATTCCGGTCTCCC
DNA 2: TGGTGGCTACGACGGGATT
B4: AGCUUAG (DNA:RNA)
RNA: B1 RNA with A26G, G27C, A28U, A31G
DNA 1: CAATCTGAATTCCGGTCTCCC
DNA 2: TGGTGGCTACGACGGGATT
B5: UUAGCAG (DNA:RNA)
RNA: B1 RNA with A25U, A26U, G27A, A28G, U29C, A31G
DNA 1: CAATCTGAATTCCGGTCTCCC
DNA 2: TGGTGGCTACGACGGGATT
B6: UGACCGA (DNA:RNA)
RNA: B1 RNA with A25U, A26G, G27A, A28C, U29C, A30G
DNA 1: CAATCTGAATTCCGGTCTCCC
DNA 2: TGGTGGCTACGACGGGATT
B7: CUUGCCU (DNA:RNA)
RNA: GGGAGACCGGAAUUCAGAUUGUCCCUUGCCUUUAAAUCCCGUCGUAGCCACCA
DNA 1: CAATCTGAATTCCGGTCTCCC
DNA 2: TGGTGGCTACGACGGGATT
B8: UCCUAUC (DNA:RNA)
RNA: GGGAGACCGGAAUUCAGAUUGUCCUCCUAUCUUAAAUCCCGUCGUAGCCACCA
DNA 1: CAATCTGAATTCCGGTCTCCC
DNA 2: TGGTGGCTACGACGGGATT
B9: GCUGAUG (DNA:RNA)
RNA: B8 RNA with U25G, C27U, U28G, C31G
DNA 1: CAATCTGAATTCCGGTCTCCC
DNA 2: TGGTGGCTACGACGGGATT
B10: AAGGCUG (DNA:RNA)
RNA: B1 RNA with A28G, U29C, A30U, A31G
DNA 1: CAATCTGAATTCCGGTCTCCC
DNA 2: TGGTGGCTACGACGGGATT
B11: UACUGGA (DNA:RNA)
RNA: B8 RNA with C26A, A29G, U30G, C31A
DNA 1: CAATCTGAATTCCGGTCTCCC
DNA 2: TGGTGGCTACGACGGGATT
B12: UAUUGCA (DNA:RNA)
RNA: B1 RNA with A25U, G27U, A28U, U29G, A30C
DNA 1: CAATCTGAATTCCGGTCTCCC
DNA 2: TGGTGGCTACGACGGGATT
B13: CUCCGUA (DNA:RNA)
RNA: B7 RNA with U27C, G28C, C29G, C30U, U31A
DNA 1: CAATCTGAATTCCGGTCTCCC
DNA 2: TGGTGGCTACGACGGGATT
B14: AGAACGA (DNA:RNA)
RNA: B1 RNA with A26G, G27A, U29C, A30G
DNA 1: CAATCTGAATTCCGGTCTCCC
DNA 2: TGGTGGCTACGACGGGATT
B15: GUCGGAC (DNA:RNA)
RNA: B7 RNA with C25G, U27C, C29G, C30A, U31C
DNA 1: CAATCTGAATTCCGGTCTCCC
DNA 2: TGGTGGCTACGACGGGATT
B16: CUCAAGC (DNA:RNA)
RNA: B8 RNA with U25C, C26U, U28A, U30G
DNA 1: CAATCTGAATTCCGGTCTCCC
DNA 2: TGGTGGCTACGACGGGATT
B17: CAGAAUA (DNA:RNA)
RNA: B1 RNA with A25C, U29A, A30U
DNA 1: CAATCTGAATTCCGGTCTCCC
DNA 2: TGGTGGCTACGACGGGATT
B18: UUCGUAA (DNA:RNA)
RNA: B1 RNA with A25U, A26U, G27C, A28G
DNA 1: CAATCTGAATTCCGGTCTCCC
DNA 2: TGGTGGCTACGACGGGATT
B19: GCGCUGG (DNA:RNA)
RNA: B1 RNA with A25G, A26C, A28C, A30G, A31G
DNA 1: CAATCTGAATTCCGGTCTCCC
DNA 2: TGGTGGCTACGACGGGATT
B20: GAUUGGC (DNA:RNA)
RNA: B8 RNA with U25G, C26A, C27U, A29G, U30G
DNA 1: CAATCTGAATTCCGGTCTCCC
DNA 2: TGGTGGCTACGACGGGATT
B21: CAAGCGG (DNA:RNA)
RNA: B7 RNA with U26A, U27A, C30G, U31G
DNA 1: CAATCTGAATTCCGGTCTCCC
DNA 2: TGGTGGCTACGACGGGATT
B22: CGCUUAA (DNA:RNA)
RNA: B1 RNA with A25C, A26G, G27C, A28U
DNA 1: CAATCTGAATTCCGGTCTCCC
DNA 2: TGGTGGCTACGACGGGATT
B23: AAUCGAG (DNA:RNA)
RNA: B1 RNA with G27U, A28C, U29G, A31G
DNA 1: CAATCTGAATTCCGGTCTCCC
DNA 2: TGGTGGCTACGACGGGATT
B24: GGUUAGU (DNA:RNA)
RNA: B7 RNA with C25G, U26G, G28U, C29A, C30G
DNA 1: CAATCTGAATTCCGGTCTCCC
DNA 2: TGGTGGCTACGACGGGATT
B25: CGAAAAU (DNA:RNA)
RNA: B1 RNA with A25C, A26G, G27A, U29A, A31U
DNA 1: CAATCTGAATTCCGGTCTCCC
DNA 2: TGGTGGCTACGACGGGATT
B26: AAAGCCC (DNA:RNA)
RNA: B7 RNA with C25A, U26A, U27A, U31C
DNA 1: CAATCTGAATTCCGGTCTCCC
DNA 2: TGGTGGCTACGACGGGATT
B27: UACUUUU (DNA:RNA)
RNA: B8 RNA with C26A, A29U, C31U
DNA 1: CAATCTGAATTCCGGTCTCCC
DNA 2: TGGTGGCTACGACGGGATT
B28: AUUUUGU (DNA:RNA)
RNA: B7 RNA with C25A, G28U, C29U, C30G
DNA 1: CAATCTGAATTCCGGTCTCCC
DNA 2: TGGTGGCTACGACGGGATT
B29: GAUUCCU (DNA:RNA)
RNA: B7 RNA with C25G, U26A, G28U
DNA 1: CAATCTGAATTCCGGTCTCCC
DNA 2: TGGTGGCTACGACGGGATT
B30: AACACGA (DNA:RNA)
RNA: B1 RNA with G27C, U29C, A30G
DNA 1: CAATCTGAATTCCGGTCTCCC
DNA 2: TGGTGGCTACGACGGGATT
B31: GAUCCCU (DNA:RNA)
RNA: B7 RNA with C25G, U26A, G28C
DNA 1: CAATCTGAATTCCGGTCTCCC
DNA 2: TGGTGGCTACGACGGGATT

What follows are binders tested against T1, RBFOX1 RRM RbFoxmut (Fox-RRM*) (assay: EMSA; HiTS-Eq, 1 nM pool, 10 min; buffer printed only for the single-RNA assays: 10 mM Tris pH 7.5, 150 mM NaCl, 3.4 mM EDTA, 0.001% NP-40, 30 C). Details: tags: His6 N-terminal (pET28a); label: 5' 32P.
How it was run: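 These values rest on relative association constants, computed from read-count changes of each RNA species versus the control reaction and normalised to the cognate motif. Reads came from free RNA recovered by 8% native PAGE after purified RbFox RRM (wild type or mutant) at increasing concentrations was equilibrated for 10 min in 50 µL with 1 nM of a 5′-radiolabelled pool with 7 randomized nucleotides and DNA-annealed flanks.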
For B1, the binding signal was 0.0722 KA relative to UGCAUGU. In the case of B2, the binding signal is reported as 0.103 KA relative to UGCAUGU. With B3 the binding signal was 0.0851 KA relative to UGCAUGU. B4 was tested, and the binding signal was 0.142 KA relative to UGCAUGU. With B5 the binding signal was 0.0971 KA relative to UGCAUGU. In the case of B6, the binding signal is reported as 0.101 KA relative to UGCAUGU. With B7 the binding signal was 0.106 KA relative to UGCAUGU. For B8, the binding signal was 0.0794 KA relative to UGCAUGU. For B9, the binding signal was 0.134 KA relative to UGCAUGU. In the case of B10, the binding signal is reported as 0.13 KA relative to UGCAUGU. B11 was tested, and the binding signal was 0.0695 KA relative to UGCAUGU. For B12, the binding signal was 0.135 KA relative to UGCAUGU. With B13 the binding signal was 0.117 KA relative to UGCAUGU. In the case of B14, the binding signal is reported as 0.099 KA relative to UGCAUGU. With B15 the binding signal was 0.0746 KA relative to UGCAUGU. For B16, the binding signal was 0.0702 KA relative to UGCAUGU. B17 was tested, and the binding signal was 0.105 KA relative to UGCAUGU. With B18 the binding signal was 0.115 KA relative to UGCAUGU. For B19, the binding signal was 0.111 KA relative to UGCAUGU. B20 was tested, and the binding signal was 0.145 KA relative to UGCAUGU. For B21, the binding signal was 0.0716 KA relative to UGCAUGU. For B22, the binding signal was 0.106 KA relative to UGCAUGU. B23 was tested, and the binding signal was 0.0786 KA relative to UGCAUGU. In the case of B24, the binding signal is reported as 0.123 KA relative to UGCAUGU. B25 was tested, and the binding signal was 0.0737 KA relative to UGCAUGU. In the case of B26, the binding signal is reported as 0.066 KA relative to UGCAUGU. B27 was tested, and the binding signal was 0.097 KA relative to UGCAUGU. With B28 the binding signal was 0.147 KA relative to UGCAUGU. B29 was tested, and the binding signal was 0.0818 KA relative to UGCAUGU. For B30, the binding signal was 0.0643 KA relative to UGCAUGU. For B31, the binding signal was 0.0562 KA relative to UGCAUGU.
